Screen size: about 1,200 compounds; about 30 (2%) were called active. Inconclusive results (about 23%) are left out. Calls come from the whole dose curve; as a rule, active = well fitted inhibition curve with a large enough effect; inconclusive = small, poorly fitted or top-dose-only effect; inactive = flat fitted curve, though single readings scatter. The list shows a part of the results.
target: Single-stranded DNA cytosine deaminase (Homo sapiens) (UniProt Q9GZX7); experiment: Confirmatory qHTS assay for inhibitors of Activation Induced Cytidine Deaminase (AID): AID signals; conditions: recombinant AID, FRET deamination/UDG coupled fluorescence, 4 h; series mostly up to 115 µM; activity, negative = inhibition: at the top concentration
How it was run: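 Read 1 (AID) was measured at 540 ex/590 em after a 30 min NaOH step. The reaction was AID (1 uM, 4/3x stock) with UDG, compound at final 7.32 nM - 114 uM for 10 min, then DJC20/DJC23 substrate for 4 hr at room temperature. A UDG read at 560/665 serves as counterscreen.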
% is set by controls: 0 for no effect and ±100 for the full control effect; potency is the fitted concentration of half-maximal effect.

UniProt Q9GZX7, sequence (Q9GZX7 whole entry, looked up): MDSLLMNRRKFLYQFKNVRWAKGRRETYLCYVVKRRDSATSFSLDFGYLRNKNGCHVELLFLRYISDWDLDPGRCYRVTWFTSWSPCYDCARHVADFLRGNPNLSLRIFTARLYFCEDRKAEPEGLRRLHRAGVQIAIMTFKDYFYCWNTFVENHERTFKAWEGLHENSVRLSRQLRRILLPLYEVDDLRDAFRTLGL

| SMILES | activity, negative = inhibition | Potency |
| --- | --- | --- |
| CCN(c1cccc(C)c1)S(=O)(=O)c1ccc(-n2cccn2)cc1 | inactive: 2.55% |  |
| Cc1[nH]n(-c2ccccc2)c(=O)c1C(c1cc(Cl)ccc1O)c1c(C)[nH]n(-c2ccccc2)c1=O | inactive: 5.52% |  |
| COCc1cc(C)nc2sc3c(c12)NC(c1ccccc1C(=O)O)N(c1cccc(C(F)(F)F)c1)C3=O (stereo not given) | inactive: -10.6% |  |
| COc1ccc(-c2noc(CN(C(=O)c3ccccc3Cl)C(C)C)n2)cc1 | inactive: -0.73% |  |
| Cc1c(C(=O)Nc2ccc(F)cc2F)oc2c1-c1nn(Cc3c(F)cccc3Cl)cc1CC2 | inactive: 88.7% |  |
| Cc1ccc(-n2cnc3cc(C(=O)NCCC4=CCCCC4)ccc32)c(C)c1 | inactive: -13.5% |  |
| COc1ccccc1Oc1nc2c(c(=O)n(C)c(=O)n2C)n1Cc1cccc(Br)c1 | inactive: -9.92% |  |
| Cc1ccc(Cl)cc1N1CCN(C(=O)c2cc(S(=O)(=O)N3CCC(C)CC3)cn2C)CC1 | inactive: -7.62% |  |
| COc1ccc(NC(=O)N(CCC(C)C)C(C)c2cccs2)c(OC)c1 (stereo not given) | inactive: -3.17% |  |
| Cc1ccc(CCNC(=O)c2ccc3c(c2)N(Cc2ccccc2F)C(=O)c2ccccc2S3=O)cc1 (stereo not given) | inactive: -6.19% |  |
| CCc1ccccc1NC(=O)[C@H](Cc1ccccc1)N1Cc2ccccc2C1=O | inactive: -6.67% |  |
| Cc1ccc(C)c(C(=O)N2CCC(c3nc4c(nnn4Cc4ccccc4)c(=O)[nH]3)CC2)c1 | inactive: -19.8% |  |
| COc1cccc(NC(=O)Cn2c(=O)n(Cc3ccccc3)c(=O)c3c4c(sc32)CN(C(C)=O)CC4)c1 | inactive: 2.23% |  |
| Cc1ccc(N2CCN(C(=O)c3nn(C)c4c3CS(=O)(=O)c3ccccc3-4)CC2C)cc1 (stereo not given) | inactive: -7.73% |  |
| Cc1nc2c(-c3ccccc3)c(C)nn2c(C)c1CCC(=O)N1CCN(c2ccccc2)CC1 | inactive: -7.22% |  |
| COc1ccc(Cn2cc(C(=O)c3ccc(OC)cc3)c(=O)c3cc4c(cc32)OCCO4)cc1 | inactive: -13.8% |  |
| Cc1cc(NC(=O)c2oc3c(c2C)-c2[nH]ncc2CC3)ccc1Br | inactive: 53.2% |  |
| O=C(c1ccc2c(c1)N(Cc1ccccc1Cl)C(=O)c1ccccc1S2)N1CCCC1 | inactive: -3.26% |  |
| COc1ccc(N2C(=O)CSC23C(=O)N(CC(=O)NCc2ccccc2)c2ccccc23)cc1 (stereo not given) | inactive: -0.726% |  |
| CCc1ccc(S(=O)(=O)c2cnc3ccc(OC)cc3c2N2CCCC(C)C2)cc1 (stereo not given) | inactive: -7.45% |  |
| Cc1ccc(Nc2c(-c3ccsc3)nc3cccc(C)n23)cc1 | inactive: 2.76% |  |
| CCCCCSc1nnc2c(n1)OC(CC)Nc1ccc(Br)cc1-2 (stereo not given) | inactive: -3.45% |  |
| CCC(C(=O)Nc1cc(OC)ccc1OC)n1c(=O)c(C(F)(F)F)nc2ccccc21 (stereo not given) | inactive: -11.8% |  |
| COc1ccc(S(=O)(=O)N(CC(=O)NC(C)c2ccccc2)c2ccc(C)cc2)cc1OC (stereo not given) | inactive: 1.71% |  |

| SMILES | activity, negative = inhibition | Potency |
| --- | --- | --- |
| Cc1ccc2nc(-c3ccccn3)c(Nc3ccccc3C)n2c1 | inactive: -19.5% |  |
| COc1ccc(-c2nc(CSCC(=O)NCc3ccccc3Cl)c(C)o2)cc1OC | inactive: -1.37% |  |
| CCCCCN1C(C(=O)c2ccccc2)=C(OC(=O)CC)c2ccccc2S1(=O)=O | inactive: -12.7% |  |
| Cc1cccc(N2CCN(C(=O)C(C)n3nc(C)n4c(cc5occc54)c3=O)CC2)c1C (stereo not given) | inactive: -6.52% |  |
| CCn1cc(C(=O)NCCc2ccccc2)c(=O)c2cc(S(=O)(=O)N3CCCCCC3)ccc21 | inactive: -14.2% |  |
| N#CC1=C2SCN(C3CCCCC3)CN2C(=O)CC1c1ccc(Br)cc1 (stereo not given) | inactive: -18.3% |  |
| CCc1nc(Nc2ccc(F)c(Cl)c2)c2c3c(sc2n1)CCCC3 | inactive: 2.84% |  |
| Cc1nc2cc(C(=O)NCCC3=CCCCC3)ccc2n1-c1ccc(Br)cc1 | inactive: -10.9% |  |
| O=C(COc1ccccc1Cl)N(Cc1ccco1)Cc1ccco1 | inactive: -12.5% |  |
| Cc1ccc2ncc(S(=O)(=O)c3ccccc3)c(N3CCCCC3C)c2c1 (stereo not given) | inactive: -27.6% |  |
| Cc1nn(-c2ccccc2)c(-n2cccc2)c1C(=O)NCCc1ccc(Cl)cc1 | inactive: -7.18% |  |
| Cc1cccc(CCNc2ncnc3onc(-c4ccc(Cl)cc4)c23)c1 | inactive: 2.28% |  |
| COc1ccc(CCNC(=O)CSc2cn(CCNC(=O)c3cccc(C(F)(F)F)c3)c3ccccc23)cc1OC | inactive: -5.23% |  |
| Cc1ccc(C(=O)c2cn(Cc3cccc(C)c3)c3nc(C)ccc3c2=O)cc1 | inactive: -14.7% |  |
| CCN(C(=O)Cn1c(SCC(=O)Nc2ccc(OC)cc2)nc2ccccc21)c1cccc(C)c1 | inactive: -22% |  |
| Cc1ccc(COc2ccc3oc(-c4ccccc4)c(C(=O)O)c3c2)cc1 | inactive: -23.5% |  |
| Cc1ccc(CNC(=O)c2sc3nc4n(c(=O)c3c2C)CCCC4)cc1 | inactive: -0.809% |  |
| CCOC(=O)c1ccc(-c2ccc(/C=C(\C#N)c3nc4ccc(C)cc4[nH]3)o2)cc1 | inactive: -12.6% |  |
| N#CC1=C2SCN(C3CCCCC3)CN2C(=O)CC1c1c(F)cccc1Cl (stereo not given) | inactive: 1.71% |  |
| CCCN1CCN(c2cc3c(cc2F)c(=O)c(S(=O)(=O)c2ccc(CC)cc2)cn3CC)CC1 | inactive: -6.7% |  |
| Cc1ccc(-c2ccc(=O)n(CC(=O)Nc3ccc(C)cc3Cl)n2)cc1 | inactive: -24.2% |  |
| COc1ccc(CC(=O)Nc2sc3c(c2C(=O)Nc2cccc(Cl)c2)CCCCC3)cc1 | inactive: 2.52% |  |
| Fc1ccc(CNc2ncnc3onc(-c4ccc(F)cc4)c23)cc1 | inactive: -9.5% |  |
| CCCN(CCC)CC(O)Cn1cc(/C=C/C(=O)c2ccc(C)cc2)c2ccccc21 (stereo not given) | inactive: -15.2% |  |

| SMILES | activity, negative = inhibition | Potency |
| --- | --- | --- |
| COc1ccccc1Cn1cc(C(=O)c2ccc(C)cc2)c(=O)c2cc(C)ccc21 | inactive: -14.3% |  |
| CCC(Oc1ccccc1F)C(=O)N1CCC(c2nc3ccccc3s2)CC1 (stereo not given) | inactive: -7.66% |  |
| COc1ccc(N2CCN(Cc3cccn3-c3nnc(N4CCN(C5CCCCC5)CC4)s3)CC2)cc1 | inactive: -4.16% |  |
| CCCCN(CC)CCCNC(=O)c1ccc2c(c1)N(Cc1ccc(C)cc1)C(=O)c1ccccc1S2 | inactive: -23.5% |  |
| Cc1ccc(CNC(=O)C2CCCN(c3nc4ccccc4n4cccc34)C2)cc1 (stereo not given) | inactive: -2.08% |  |
| COCCNC(=O)c1ccc2c(c1)N(Cc1ccc(C(F)(F)F)cc1)C(=O)c1ccccc1S2 | inactive: -3.98% |  |
| N#C/C(=C\c1ccc(-c2ccc(Cl)c(C(=O)O)c2)o1)c1nc2ccccc2[nH]1 | inactive: -24.3% |  |
| CCn1cc(C(=O)OCC(=O)Nc2cccc(C(C)=O)c2)c(=O)c2ccc(C)nc21 | inactive: -6.41% |  |
| CCOc1ccc(CN2CCc3nc(Nc4ccc(OC)cc4OC)ncc3C2)cc1 | inactive: -2.62% |  |
| COc1ccc(CNc2oc(-c3ccc(COc4ccccc4C)o3)nc2C#N)cc1 | inactive: -0.216% |  |
| Cc1ccc(Cl)cc1N1CCN(Cc2nnc(-c3ccc4c(c3)OCO4)o2)CC1 | inactive: -7.22% |  |
| CC(C)(C)OC(=O)N1CCC(c2c(C(=O)N3CCC(c4ccccc4)C3)cnn2-c2cccc(Cl)c2)CC1 (stereo not given) | inactive: -6.06% |  |
| Cc1ccc(-c2nc3sc(CCNC(=O)c4ccc(Br)o4)c(C)n3n2)cc1 | inactive: -14.3% |  |
| COc1cccc(CNC(=O)c2cc3c(s2)-c2ccccc2OC3)c1 | inactive: -10.7% |  |
| Cc1nc2c(C(=O)NCc3ccccc3)c[nH]n2c(=O)c1Cc1ccccc1Cl | inactive: -12.7% |  |
| Cc1cccc(CCNC(=O)c2sc3nc4n(c(=O)c3c2C)CCCC4)c1 | inactive: -13.8% |  |
| Clc1ccc(-c2noc3ncnc(NCCc4ccccc4)c23)cc1 | inactive: -12.8% |  |
| CCC(Sc1nc2ccccc2c(=O)n1CCc1ccc(OC)c(OC)c1)C(=O)N(CC)CC (stereo not given) | inactive: -6.51% |  |
| COc1c(C)cccc1C(=O)Nc1cccc2ccc(C)nc12 | inactive: -6.4% |  |
| COc1ccc(S(=O)(=O)c2cnc3ccc(Cl)cc3c2N2CCCCC2C)cc1 (stereo not given) | inactive: -7.01% |  |
| CC(=O)c1cccc(NC(=O)c2oc3c(c2C)-c2nn(Cc4ccc(Cl)cc4)cc2CC3)c1 | inactive: 25.6% |  |
| COc1cc(Nc2nc(SCC(=O)c3ccc(Br)cc3)nc3ccccc23)cc(OC)c1 | inactive: -11.3% |  |
| O=C1C(SCCO)=C(SCCO)C(=O)c2ccccc21 |  | active: 14.1 µM |
| CCCc1cc(=O)n2[nH]c(NC(=O)c3ccc(C(C)(C)C)cc3)nc2n1 | inactive: -15.5% |  |

| SMILES | activity, negative = inhibition | Potency |
| --- | --- | --- |
| COc1ccc(C(=O)Nc2nc3nc(C)c(Cc4ccccc4)c(=O)n3[nH]2)cc1OC | inactive: -10.3% |  |
| COC(=O)c1ccc(CSc2nnc3ccc4ccccc4n23)cc1 | inactive: -11% |  |
| Cc1ccc2cccc(NC(=O)c3ccc(OC(C)C)cc3)c2n1 | inactive: -17.6% |  |
| CSc1nc(Nc2ccc(F)cc2)cc(-c2ccccc2)n1 | inactive: -5.19% |  |
| Cc1ccc(CNC(=O)Nc2cc(C(=O)NCc3ccc(C(C)C)cc3)ccc2N2CCCC2)cc1 | inactive: 5.42% |  |
| CCC(=O)Oc1c(Sc2ccc(Cl)cc2)c(C)nn1-c1ccccc1 | inactive: 5.67% |  |
| CCc1ccc(CN2CCc3nc(Nc4ccccc4)ncc3C2)cc1 | inactive: -9.78% |  |
| CCc1ccccc1Nc1nn2c(=O)c3ccc(C(=O)NC(C)c4ccccc4)cc3nc2s1 (stereo not given) | inactive: -7.25% |  |
| CCCNC(=O)c1cnn2c(C)c(Cc3c(C)cc(C)cc3C)c(C)nc12 | inactive: -18.3% |  |
| CC(=O)NCCNc1nc2c(S(=O)(=O)c3ccc(C)c(C)c3)nnn2c2ccc(Cl)cc12 | inactive: -21.6% |  |
| Cc1ccc(C(C)C)c(OCC(=O)N2CCC(c3nc4ccccc4o3)CC2)c1 | inactive: -23.9% |  |
| Cc1nn2c(=O)cc(COC(=O)c3ccc(NC(=O)C4CCCCC4)cc3)nc2s1 | inactive: -2.33% |  |
| Cc1sc2ncn(CC(=O)N3CCN(c4ccc(F)cc4)CC3)c(=O)c2c1S(=O)(=O)N1CCC(C)CC1 | inactive: -15.3% |  |
| CCOc1ccccc1NC(=O)CN1C(=O)CC(c2ccc(OC)c(OC)c2)Sc2ccccc21 (stereo not given) | inactive: -16.7% |  |
| CCN1C(=O)c2ccccc2S(=O)c2ccc(C(=O)N3CCN(c4cccc(C)c4)C(C)C3)cc21 (stereo not given) | inactive: -22.1% |  |
| CN1CCN(c2nc3c(S(=O)(=O)c4ccc(Cl)cc4)nnn3c3ccsc23)CC1 | inactive: -27.7% |  |
| Cc1nn2c(C)c(C(=O)NCCc3ccccc3)cnc2c1-c1ccccc1 | inactive: -13.7% |  |
| CC(C)(C)OC(=O)N1CCC(c2c(C(=O)N3CCN(Cc4ccccc4)CC3)cnn2-c2cccc(Cl)c2)CC1 | inactive: -15.7% |  |
| CCCCC1CCC(C(=O)N2CC(=O)Nc3ccc(F)cc3C2c2ccc(F)cc2)CC1 (stereo not given) | inactive: -12% |  |
| CCc1ccc(NC(=O)c2cnn(-c3c(C)cccc3C)c2C2CCN(C(=O)OC(C)(C)C)CC2)cc1 | inactive: -18.2% |  |
| COc1ccc(NC(=O)CSc2nc3nc(C)c(Cc4ccc(C)cc4)c(C)n3n2)cc1OC | inactive: -8.3% |  |
| CCCN(Cc1cccs1)C(=O)Nc1cc(Cl)ccc1C | inactive: -11% |  |
| CC(C)Cc1ccc(S(=O)(=O)N2CCC(c3ccncc3)CC2)cc1 | inactive: -12% |  |
